Where “and” joins values, the source holds several entries; their conditions need not be identical. Equal entries are not always repeated. Structures can show the parent of a compound that is named as a salt. ± gives the standard deviation of the averaged measurements. Over roughly 3,200 compounds, “nuclei count (viability) relative to DMSO” has its median near 99; the lowest 2% begin near 16. The list shows a part of the results.

For this experiment, the system named is U2OS. Nature of the experiment: nuclei count (viability) relative to DMSO (% of DMSO); higher = more viable cells. The following applies: 10 µM; 24 h. On the procedure:
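Primary image-based screen in U2OS cells: compounds at 10 uM for 24 h, then a 1 h o-propargyl-puromycin (OPP) pulse, click labelling, and high-throughput microscopy. Mean cytoplasmic OPP intensity and nuclei count were normalised to DMSO wells within each plate (DMSO = 100) and averaged over triplicate plates.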
The molecule `CCC(=O)OCC(=O)[C@@]1(OC(=O)CC)[C@H](C)C[C@H]2[C@H]3[C@H]([C@@H](O)C[C@@]21C)[C@@]1(C)C=CC(=O)C=C1C[C@H]3Cl` [Alclometasone dipropionate] gave a nuclei count of 90.9.
Take `CN(CCOc1ccc(CC2SC(=O)NC2=O)cc1)c1ccccn1` (stereo unspecified) [Rosiglitazone maleate]: the nuclei count was 106.
On to `CN(CCOc1ccc(CC2SC(=O)NC2=O)cc1)c1ccccn1` (stereo unspecified) [Rosiglitazone Hydrochloride], for which the nuclei count worked out at 103.
Under `O=C(NCC(=O)N1CCCC1)Nc1ccc2cnccc2c1` stands 36.9; under `CC(N)C12CC3CC(CC(C3)C1)C2` (stereo unspecified) [Rimantadine Hydrochloride], 109.
`Fc1cc(-c2cccc3ncc(-c4cnn(C5CCNCC5)c4)nc23)cc(F)c1CN1CCOCC1` registered a nuclei count of 46.
In the case of `CCC(=O)NC[C@H](Cc1ccc(OCCc2nc(-c3ccccc3)oc2C)cc1)N/C(C)=C\C(=O)c1ccc(C(F)(F)F)cc1`, the nuclei count was 104.
`COc1ccc(C[C@@H]2c3cc(OC)c(OC)cc3CC[N@+]2(C)CCC(=O)OCCCCCOC(=O)CC[N@@+]2(C)CCc3cc(OC)c(OC)cc3[C@H]2Cc2ccc(OC)c(OC)c2)cc1OC` [Cisatracurium besylate (Nimbex)] registered a nuclei count of 95.6.
Take `CCOC(=O)c1c(C)n(C)c2ccc(O)cc12` [Mecarbinate]: the nuclei count stood at 105.
`Nc1cc(-c2ccncc2)c[nH]c1=O` [Amrinone] displayed a nuclei count of 97.5.
For `Cc1ccc2c(c1)C(=O)C1(O)CCN(c3ccccc3)C1=N2` (racemic) [(±)-Blebbistatin], the nuclei count amounted to 89.1.
As for `CN(C)[C@@H]1C(O)=C(C(N)=O)C(=O)[C@@]2(O)C(O)=C3C(=O)c4c(O)ccc(Cl)c4[C@@H](O)[C@H]3C[C@@H]12` [Demeclocycline hydrochloride], the nuclei count worked out at 106.
Under `Cn1c([N+](=O)[O-])cnc1COC(N)=O` [Ronidazole] stands 109.
`O=C1c2ccccc2S(=O)(=O)N1CCCCN1CCN(c2ncccn2)CC1` [Ipsapirone] displayed a nuclei count of 108 ± 6.1.
Molecule `COc1ccc(C(=O)NCc2ccc(OCCN(C)C)cc2)cc1OC` [Itopride] gave a nuclei count of 94.2.
The molecule `N[C@@H](C(=O)N[C@@H]1C(=O)N2C(C(=O)O)=C(Cl)CS[C@H]12)c1ccccc1` [Cefaclor hydrate] showed a nuclei count of 101.
Under `O=C(O)c1cc(O)c2ccc(Cl)cc2n1` [7-Chlorokynurenic acid] stands 97.9.
Under `Cc1cc(Nc2nc(N[C@@H](C)c3ncc(F)cn3)ncc2Cl)[nH]n1` stands 49.6; under `COC[C@H](NC(=O)c1cnc(C)s1)C(=O)N[C@@H](COC)C(=O)N[C@@H](Cc1ccccc1)C(=O)[C@@]1(C)CO1` [Oprozomib (ONX 0912)], 11.1; under `O=C(O)CCC/C=C\C[C@@H]1CO[C@H](C(F)(F)F)O[C@@H]1c1ccccc1O`, 102.
Regarding `CC(Oc1ccccc1)C(=O)N[C@@H]1C(=O)N2[C@@H]1SC(C)(C)[C@@H]2C(=O)O` (stereo partly specified) [Phenethicillin potassium salt], the nuclei count is 100.
`CC[C@@H]1/C=C(\C)C[C@H](C)C[C@H](OC)[C@H]2O[C@@](O)(C(=O)C(=O)N3CCCC[C@H]3C(=O)O[C@H](/C(C)=C/[C@@H]3CC[C@H](Cl)[C@H](OC)C3)[C@H](C)[C@@H](O)CC1=O)[C@H](C)C[C@@H]2OC` [Pimecrolimus] yielded a nuclei count of 106.
For the molecule `CNCCC(Oc1ccc(C(F)(F)F)cc1)c1ccccc1` (stereo unspecified) [Fluoxetine hydrochloride], the nuclei count worked out at 99.2 ± 1.
Consider `Cc1nc2n(c(=O)c1CCN1CCC(c3noc4cc(F)ccc34)CC1)CCCC2` [Risperidone], for which the nuclei count was found to be 77.4.
`C[C@@H](CN1CC(=O)NC(=O)C1)N1CC(=O)NC(=O)C1` [Dexrazoxane HCl]: the nuclei count was found to be 90.7.
Regarding `C[C@@H](CN1CC(=O)NC(=O)C1)N1CC(=O)NC(=O)C1` [Dexrazoxane hydrochloride], the nuclei count is 92.8.
The molecule `OCc1cc(C(O)CNCCCCCCOCCCCc2ccccc2)ccc1O` (stereo unspecified) [Salmeterol] displayed a nuclei count of 97.6 ± 3.6.
In turn, `C#CCN1C(C)=C(C(=O)OC)C(c2cccc([N+](=O)[O-])c2)C(C(=O)OCC)=C1C` (stereo unspecified) yielded a nuclei count of 99.3.
Under `CC(=O)OCC(=O)[C@@]12N=C(C)O[C@@H]1C[C@H]1[C@@H]3CCC4=CC(=O)C=C[C@]4(C)[C@H]3[C@@H](O)C[C@@]12C` [Deflazacort (Calcort)] stands 100; under `CC(=O)OCC(=O)[C@@]12N=C(C)O[C@@H]1C[C@H]1[C@@H]3CCC4=CC(=O)C=C[C@]4(C)[C@H]3[C@@H](O)C[C@@]12C` [Deflazacort], 106.
Molecule `O=C(O)Cc1sc(-c2ccccc2)nc1-c1ccc(Cl)cc1` [Fentiazac] showed a nuclei count of 97.7.
With `CCN1CC(CCN2CCOCC2)C(c2ccccc2)(c2ccccc2)C1=O` (stereo unspecified) [Doxapram HCl] the figure was 102; with `O=C(c1cc(O)c(O)c(O)c1)c1ccc(O)c(O)c1O` [Exifone], 94.1; with `Cc1c(C(=O)NN2CCOCC2)nn(-c2ccc(Cl)cc2Cl)c1-c1ccc(I)cc1`, 98.3.
For `Cc1cnc(CNC(=O)c2c(=O)c3ccc(N4CCCN(C)CC4)nc3n3c2sc2ccccc23)cn1`, the nuclei count is 60.8.
`CN(C)Cc1cccc(N/C(=C2\C(=O)Nc3cc(C(N)=O)ccc32)c2ccccc2)c1`: the nuclei count was determined as 102.
The molecule `CC(=O)N[C@H]1[C@H]([C@H](O)[C@H](O)CO)OC(C(=O)O)=C[C@@H]1NC(=N)N` [Zanamivir (Relenza)] showed a nuclei count of 101.
Consider `CC(C)Oc1ccc2c(=O)c3cc(C(=O)O)ccc3oc2c1`, for which the nuclei count was 103.
`Nc1ncnc2c1ncn2[C@@H]1O[C@H](COP(=O)(O)OP(=O)(O)OP(=O)(O)O)[C@@H](O)[C@H]1O` [ATP (Adenosine-Triphosphate)] showed a nuclei count of 106.
In turn, `CC(=O)[C@H]1CC[C@H]2[C@@H]3C[C@H](C)C4=CC(=O)CC[C@]4(C)[C@H]3[C@@H](O)C[C@]12C` [Medrysone] returned a nuclei count of 108.
Consider `CCOC(=O)OC(C)OC1=C(C(=O)Nc2ccccn2)N(C)S(=O)(=O)c2ccccc21` (stereo unspecified) [Ampiroxicam], for which the nuclei count came to 101.
Molecule `O=C(Nc1c(Cl)cncc1Cl)c1ccc(OC(F)F)c(OCC2CC2)c1` [Roflumilast (Daxas)] yielded a nuclei count of 102.
Molecule `CCCS(=O)(=O)Nc1ccc(F)c(C(=O)c2c[nH]c3ncc(-c4ccc(Cl)cc4)cc23)c1F` [Vemurafenib (PLX4032)] showed a nuclei count of 104 ± 5.7.
Consider `C[C@@H]1O[C@@H](O[C@H]2[C@H](Oc3cc(O)c(C(=O)CCc4ccc(O)cc4)c(O)c3)O[C@H](CO)[C@@H](O)[C@@H]2O)[C@H](O)[C@H](O)[C@H]1O` [Naringin Dihydrochalcone (Naringin DC)], for which the nuclei count amounted to 96.5.
The molecule `C[N+](C)([O-])CCNc1ccc(NCC[N+](C)(C)[O-])c2c1C(=O)c1c(O)ccc(O)c1C2=O` [Banoxantrone dihydrochloride] returned a nuclei count of 51.2.
With `CCCCNC(=O)NS(=O)(=O)c1ccc(C)cc1` [Tolbutamide] the figure was 95.6 ± 7.2.
Molecule `O=C(O)c1cc(-c2ccc(F)cc2F)ccc1O` [Diflunisal] showed a nuclei count of 105.
Molecule `c1ccc2c(-c3ccncc3)c[nH]c2c1` [Rockout] displayed a nuclei count of 105.
In turn, `CC(C)(C)NC[C@H](O)c1ccc(O)c(CO)c1` [Levalbuterol hydrochloride] came in with a nuclei count of 108.
With `CCn1cc(C(=O)O)c(=O)c2cnc(N3CCCC3)nc21` [Piromidic acid], the nuclei count was 100.
For `COc1ccc(Nc2ncnc3ccc(OC)cc23)cc1` [MPMQ hydrochloride], the nuclei count was 106.
Under `O=S(=O)(O)CCS` [Mesna] stands 107.
`Cc1nc(NC(=O)N2CCC[C@H]2C(N)=O)sc1-c1ccnc(C(C)(C)C(F)(F)F)c1`: the nuclei count was found to be 82.8 ± 5.8.
Molecule `COc1ccc2cc([C@@H](C)C(=O)O)ccc2c1` [(R) -Naproxen sodium salt] registered a nuclei count of 101.
Under `Nc1nc(=O)c2c([nH]1)NC[C@@H](CNc1ccc(C(=O)N[C@@H](CCC(=O)O)C(=O)O)cc1)N2C=O` [Folinic acid calcium salt] stands 84.6; under `CC(C)NCC(O)COc1cccc2ccccc12` (stereo unspecified) [Propranolol hydrochloride], 103.
`CCCCC(CC)CNC(=N)NC(=N)NCCCCCCNC(=N)NC(=N)NCC(CC)CCCC` (stereo unspecified) [Alexidine dihydrochloride] showed a nuclei count of 6.87.
On to `Oc1c2ccccc2c2c3c(cccc13)N=N2`, for which the nuclei count is 73.8 and 92.7.
The molecule `COC(=O)[C@@H]1[C@H]2C[C@H]3c4[nH]c5ccccc5c4CCN3C[C@@H]2CC[C@@H]1O` [Yohimbine hydrochloride] showed a nuclei count of 103 ± 2.
Under `CC(C)C[C@H](NC(=O)[C@H]1O[C@@H]1C(=O)O)C(=O)NCCCCN=C(N)N` stands 94.5; under `Cc1[nH]c(/C=C2\C(=O)Nc3ccc(S(=O)(=O)N(C)c4cccc(Cl)c4)cc32)c(C)c1C(=O)N1CCN(C)CC1`, 52.4.
In turn, `CN(C)Cc1ccc(-c2nc3cccc4c3n2CCNC4=O)cc1` came in with a nuclei count of 81.
With `CC1(C)NC(=O)N(c2ccc([N+](=O)[O-])c(C(F)(F)F)c2)C1=O` [Nilutamide], the nuclei count was found to be 113 ± 9.4.
`N[C@@H](CC(=O)Nc1ccc(Oc2cc(F)c(F)cc2Br)cc1)C(=O)O` displayed a nuclei count of 103.
Under `Cc1coc2c1C(=O)C(=O)c1c-2ccc2c(C)cccc12` [Tanshinone I] stands 98.3; under `CCC1=C(C)CN(C(=O)NCCc2ccc(S(=O)(=O)NC(=O)N[C@H]3CC[C@H](C)CC3)cc2)C1=O` [Glimepiride], 102 ± 4.4; under `C[C@@]12C[C@@]3(O)O[C@@H](O1)[C@]1(COC(=O)c4ccccc4)[C@H]3C[C@@]12O[C@@H]1O[C@H](CO)[C@@H](O)[C@H](O)[C@H]1O` [Paeoniflorin], 95.6.
`CCS(=O)(=O)CCn1c([N+](=O)[O-])cnc1C` [Tinidazole] came in with a nuclei count of 109.
Turning to `N#C[C@@H]1C[C@@H]2C[C@@H]2N1C(=O)[C@@H](N)C12CC3CC(CC(O)(C3)C1)C2`, the nuclei count came to 104.
`O=C1CCc2cc(OCCCCc3nnnn3C3CCCCC3)ccc2N1` [Cilostazol] registered a nuclei count of 107 ± 6.1.
Take `O=P(O)(O)C(Cl)(Cl)P(=O)(O)O` [Clodronate]: the nuclei count is 104.

The record behind these values is the supplement of paper PMC8183993.
